From the supplement of paper PMC4967469
pIC50: −log10 of the molar value. A lower IC50 marks a more sensitive line; a limit (>, <) means that the fit lies beyond the doses tested. AUC is the area under the same curve over the 256-fold range up to the top dose, as a fraction; values near 1 show little effect. For some of these results: Where the top dose is marked as inferred, it was derived from the fitted curves, not read from the paper. For some of these results: Drugs with an entry number were screened twice under separate entries, and the two screens often disagree.

What was measured:
Experiment in all cases: Viability of human cancer cell lines after 72 h of drug (GDSC screen)
[1] = compound: C#Cc1cccc(Nc2ncnc3cc(OC)c(OCCCCCCC(=O)NO)cc23)c1 [CUDC-101]; settings: top dose 5.12 µM; top dose inferred
Description: (§1)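 Human cancer cell lines in 384-well plates, medium with 10% serum, drug for 72 h over a 256-fold dose range (nine 2-fold or five 4-fold steps up to the top dose). Adherent lines were fixed and stained with the nucleic acid dye Syto60, suspension lines read with resazurin; signal relative to control wells, capped at 0 and 100%. One two-parameter sigmoid per drug and line, fitted in a mixed model over all curves with the slope shared within a line.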

[2] = compound: NCC(=O)Nc1ccc(-n2nc(C(F)(F)F)cc2-c2ccc3c(ccc4ccccc43)c2)cc1 [OSU-03012]; settings: top dose 16 µM; top dose inferred
Description: as §1

[3] = compound: CC(C)(C)c1cc(NC(=O)Nc2ccc(-c3cn4c(n3)sc3cc(OCCN5CCOCC5)ccc34)cc2)no1 [AC220]; settings: top dose 1.024 µM; top dose inferred
Description: as §1

[4] = compound: Fc1cc(-c2ccnc(Nc3ccc(-n4cnc(N5CCOCC5)n4)cc3)n2)cc(N2CCOCC2)c1 [JNK-9L]; settings: top dose 5.12 µM; top dose inferred
Description: as §1

[5] = compound: OC[C@H](Cc1ccccc1)Nc1nc(Oc2ccc3c(c2)CCC3)nc2c1ncn2Cc1ccc(-c2ccccc2)cc1 [QS11]; settings: top dose 10.24 µM
Description: as §1

[6] = compound: COc1cc(F)c(F)c(Nc2ccc(I)cc2F)c1NS(=O)(=O)C1(C[C@H](O)CO)CC1 [RDEA119]; settings: top dose 5 µM, top dose inferred
Description: as §1

[7] = compound: O=c1[nH]cc(F)c(=O)[nH]1 [5-Fluorouracil]; settings: top dose 32 µM; top dose inferred
Description: as §1

Cell Line | AUC [1] | pIC50 [1] | AUC [2] | pIC50 [2] | AUC [3] | pIC50 [3] | AUC [4] | pIC50 [4] | AUC [5] | pIC50 [5] | AUC ([6]; screen: GDSC drug entry 1014) | pIC50 ([6]; screen: GDSC drug entry 1014) | AUC ([6]; screen: GDSC drug entry 1526) | pIC50 ([6]; screen: GDSC drug entry 1526) | AUC [7] | pIC50 [7]
OVCAR-5 (ovary, adherent) | 0.561 | 6.32 | 0.832 | 4.88 | 0.978 | < 5.99 | 0.446 | 6.66 | 0.982 | < 4.99 | 0.48 | 6.56 | 0.487 | 6.54 |  | 
OVCAR-8 (ovary, adherent) | 0.406 | 6.74 | 0.701 | 5.46 | 0.98 | < 5.99 | 0.531 | 6.41 | 0.923 | < 4.99 | 0.865 | 5.44 | 0.886 | 5.34 |  | 
PC-3 (prostate, adherent) | 0.502 | 6.49 | 0.735 | 5.26 | 0.98 | < 5.99 | 0.81 | 5.46 | 0.934 | < 4.99 | 0.945 | < 5.30 | 0.977 | < 5.30 |  | 
PC-14 (lung adenocarcinoma, adherent) | 0.39 | 6.78 | 0.748 | 5.33 | 0.989 | < 5.99 | 0.634 | 6.14 | 0.975 | < 4.99 | 0.867 | 5.43 | 0.907 | < 5.30 |  | 
SBC-5 (small cell lung carcinoma, adherent) | 0.565 | 6.33 | 0.743 | 5.38 | 0.986 | < 5.99 | 0.579 | 6.30 | 0.917 | < 4.99 | 0.967 | < 5.30 | 0.949 | < 5.30 |  | 
SF268 (glioma, adherent) | 0.382 | 6.83 | 0.694 | 5.44 | 0.983 | < 5.99 | 0.591 | 6.24 | 0.884 | < 4.99 | 0.892 | < 5.30 | 0.898 | < 5.30 |  | 
SK-MEL-2 (melanoma, adherent) | 0.739 | 5.80 | 0.855 | 4.87 | 0.975 | < 5.99 | 0.651 | 6.07 | 0.987 | < 4.99 | 0.489 | 6.54 | 0.529 | 6.42 |  | 
SK-MEL-28 (melanoma, adherent) | 0.688 | 5.97 | 0.922 | < 4.80 | 0.982 | < 5.99 | 0.976 | < 5.29 | 0.984 | < 4.99 | 0.389 | 6.81 | 0.394 | 6.79 |  | 
SK-OV-3 (ovary, adherent) | 0.542 | 6.37 | 0.628 | 5.61 | 0.973 | < 5.99 | 0.753 | 5.68 | 0.881 | < 4.99 | 0.933 | < 5.30 | 0.909 | < 5.30 |  | 
SN12C (kidney, adherent) | 0.711 | 5.86 | 0.854 | 4.82 | 0.986 | < 5.99 | 0.663 | 6.01 | 0.912 | < 4.99 |  |  | 0.809 | 5.52 |  | 
SNU-175 (large intestine, suspension) | 0.427 | 6.69 |  |  | 0.877 | 6.04 |  |  |  |  |  |  |  |  | 0.785 | 4.89
SNU-C2B (large intestine, adherent) | 0.499 | 6.50 | 0.701 | 5.35 | 0.979 | < 5.99 | 0.613 | 6.14 | 0.941 | < 4.99 | 0.832 | 5.33 | 0.88 | < 5.30 |  | 
SW1573 (lung adenocarcinoma, adherent) | 0.735 | 5.72 | 0.771 | 5.08 | 0.98 | < 5.99 | 0.573 | 6.27 | 0.975 | < 4.99 | 0.911 | < 5.30 | 0.861 | < 5.30 |  | 
T47D (breast, adherent) | 0.406 | 6.81 | 0.763 | 5.05 | 0.938 | < 5.99 | 0.858 | < 5.29 | 0.971 | < 4.99 | 0.95 | < 5.30 | 0.96 | < 5.30 |  | 
T-24 (bladder, adherent) | 0.711 | 5.91 | 0.881 | 4.81 | 0.983 | < 5.99 | 0.745 | 5.81 | 0.987 | < 4.99 |  |  | 0.801 | 5.64 |  | 
TK10 (kidney, adherent) | 0.973 | < 5.29 | 0.687 | 5.43 | 0.982 | < 5.99 | 0.678 | 5.95 | 0.934 | < 4.99 | 0.756 | 5.69 | 0.718 | 5.82 |  | 
U251 (glioma, adherent) | 0.303 | 7.03 | 0.871 | 4.86 | 0.986 | < 5.99 | 0.658 | 6.06 | 0.969 | < 4.99 |  |  | 0.816 | 5.58 |  | 
UACC-257 (melanoma, adherent) | 0.517 | 6.44 | 0.858 | < 4.80 | 0.972 | < 5.99 | 0.687 | 5.91 | 0.974 | < 4.99 | 0.36 | 6.94 | 0.435 | 6.70 |  | 
UMC-11 (lung carcinoid, adherent) | 0.37 | 6.83 | 0.822 | 5.09 | 0.953 | < 5.99 | 0.533 | 6.41 | 0.989 | < 4.99 |  |  | 0.99 | < 5.30 |  | 
YMB-1-E (breast, adherent) | 0.811 | 5.39 |  |  | 0.963 | < 5.99 |  |  |  |  |  |  |  |  | 0.837 | < 4.49
